Experimental data from patent publication US9133439B2, “Differentiation of human embryonic stem cells” (Janssen Biotech, Inc., priority 2009, dated 2015).
Read-outs that look alike come from different tables or passages of the source.

What was measured:
[1] = test system: NGN3 expression in differentiated H1 human embryonic stem cells; assay: Example 1: kinase inhibitor library screen, NGN3 expression by high content analysis after differentiation; format: cell-based; conditions: for fold induction at 2.5 µM: Homo sapiens, Embryonic stem cell; for NGN3 intensity RANK, Dose Stages 3&4 / NGN3 intensity RANK, Dose Stage 3 / NGN3 intensity RANK, Dose Stage 4: rank order among both kinase inhibitor libraries
[2] = test system: NKX6.1 expression in differentiated H1 human embryonic stem cells; conditions: for NKX6.1 Intensity RATIO: ratio of NKX6.1 staining for well treated with individual compound relative to average staining in wells with DMSO alone; for NKX6.1 RANK: 2.5 μM compound in steps 3 and 4, with Trichostatin A, ordered ranking of top 16 hits
[3] = test system: NGN3 expression in differentiated H1 human embryonic stem cells; conditions: for NGN3 Intensity RATIO: ratio of NGN3 staining for well treated with individual compound relative to average staining in wells with DMSO alone; for NGN3 RANK: 2.5 μM compound in steps 3 and 4, with Trichostatin A, ordered ranking of top 16 hits
[4] = test system: NGN3 expression in differentiated H1 human embryonic stem cells; assay: Example 3: confirmation screen, NGN3 expression by high content analysis; format: cell-based; conditions: for NGN3 Cell Count Ratio / NGN3 Intensity RATIO: 2.5 uM, steps 3 and 4, triplicate, relative to control treatment; for effect on NGN3 expression relative to a control treatment (in words): confirmation screen, Example 3
[5] = test system: NKX6.1 expression in differentiated H1 human embryonic stem cells; assay: Example 3: confirmation screen, NKX6.1 expression by high content analysis; format: cell-based; conditions: for NKX6.1 Cell Count Ratio / NKX6.1 Intensity RATIO: 2.5 uM, steps 3 and 4, triplicate, relative to control treatment; for effect on NKX6.1 expression relative to a control treatment (in words): confirmation screen, Example 3
[6] = inhibitor dosed at stage 3 only, NGN3 total intensity as ratio to control, EMDII and BioMol kinase inhibitor libraries
[7] = inhibitor dosed at stage 4 only, NGN3 total intensity as ratio to control, EMDII and BioMol kinase inhibitor libraries
[8] = inhibitor dosed at stages 3 and 4, NGN3 total intensity as ratio to control, EMDII and BioMol kinase inhibitor libraries
[9] = 2.5 μM compound during combined stages 3 and 4, NGN3 staining intensity relative to DMSO vehicle wells, read-out: NGN3 intensity RATIO, Dose Stages 3&4
[10] = 2.5 μM compound during stage 3 alone, NGN3 staining intensity relative to DMSO vehicle wells, read-out: NGN3 intensity RATIO, Dose Stage 3
[11] = 2.5 μM compound during stage 4 alone, NGN3 staining intensity relative to DMSO vehicle wells, read-out: NGN3 intensity RATIO, Dose Stage 4
[12] = 2.5 μM compound during combined stages 3 and 4, NGN3 staining intensity relative to DMSO vehicle wells
[13] = 2.5 μM compound during combined stages 3 and 4
[14] = 2.5 μM compound during stage 3 alone, NGN3 staining intensity relative to DMSO vehicle wells
[15] = 2.5 μM compound during stage 3 alone
[16] = 2.5 μM compound during stage 4 alone, NGN3 staining intensity relative to DMSO vehicle wells
[17] = 2.5 μM compound during stage 4 alone

| SMILES | NGN3 Intensity RATIO, Dose Stage 3 [1, 6] | NGN3 Intensity RATIO, Dose Stage 4 [1, 7] | NGN3 Intensity RATIO, Dose Stages 3 & 4 [1, 8] | NKX6.1 Intensity RATIO [2] | NGN3 Intensity RATIO [3] | NKX6.1 RANK [2] | NGN3 Cell Count Ratio [4] | NGN3 Intensity RATIO [4] | NGN3 RANK [3] | NKX6.1 Cell Count Ratio [5] | NKX6.1 Intensity RATIO [5] | NGN3 intensity RANK, Dose Stages 3&4 [1, 13] | NGN3 intensity RANK, Dose Stage 3 [1, 15] | NGN3 intensity RANK, Dose Stage 4 [1, 17] | further results |
| --- | --- | --- | --- | --- | --- | --- | --- | --- | --- | --- | --- | --- | --- | --- | --- |
| CC(=O)c1c(O)c(C)c(O)c(Cc2c(O)c3c(c(C(=O)/C=C/c4ccccc4)c2O)OC(C)(C)C=C3)c1O [Rottlerin] | 0.61 | 0.39 | 0.45 | 0.96 | 0.56 |  |  |  |  |  |  |  |  |  |  |
| O=C1Nc2ccc(I)cc2/C1=C/c1cc(Br)c(O)c(Br)c1 [GW 5074] | 1.35 | 0.77 | 0.94 | 3.48 | 1.78 | 10 | 3.15 | 2.79 | 8 | 2.77 | 2.32 |  |  |  |  |
| C[C@@H](N)[C@H]1CC[C@H](C(=O)Nc2ccncc2)CC1 [Y-27632] |  |  |  | 1.31 | 1.40 |  |  |  | 14 |  |  |  |  |  | fold induction at 2.5 µM [1, 9]: 1.78; fold induction at 2.5 µM [1, 10]: 0.84; fold induction at 2.5 µM [1, 11]: 2.67 |
| CC(C)(C)c1cc(C=C(C#N)C#N)cc(C(C)(C)C)c1O [Tyrphostin 9] | 0.58 | 0.40 | 0.34 | 0.29 | 0.29 |  |  |  |  |  |  |  |  |  |  |
| NC(N)=NCCNS(=O)(=O)c1cccc2cnccc12 [HA-1004] | 1.82 | 2.30 | 1.63 | 3.88 | 1.55 | 8 | 2.77 | 2.49 | 10 | 2.83 | 2.66 | 17 | 6 | 3 | NGN3 Intensity RATIO, Dose Stages 3 & 4 [1, 12]: 1.63; NGN3 Intensity RATIO, Dose Stage 3 [1, 14]: 1.82; NGN3 Intensity RATIO, Dose Stage 4 [1, 16]: 2.30 |
| CCCCCCCCCCCCCCCC(=O)OC(CC(=O)O)C[N+](C)(C)C.[Cl-] (racemic) [Palmitoyl-DL-carnitine Cl] | 1.06 | 0.97 | 0.82 | 1.19 | 0.99 |  |  |  |  |  |  |  |  |  |  |
| CC(C)(C)n1nc(-c2ccc(Cl)cc2)c2c(N)ncnc21 [PP2] |  |  |  |  |  | 7 |  |  | 5 |  |  | 1 | 8 | 2 |  |
| CC(C)c1cnc(NC(=O)Cc2ccccc2)s1 [BML-259] |  |  |  |  |  |  |  |  |  |  |  |  |  |  | effect on NGN3 expression relative to a control treatment (in words) [4]: no enhancing effects; effect on NKX6.1 expression relative to a control treatment (in words) [5]: no enhancing effects |
| COC(=O)/C=C/c1cc(O)ccc1O [Erbstatin analog] | 1.38 | 0.77 | 0.53 | 0.38 | 0.34 |  |  |  |  |  |  |  |  |  |  |
| O=c1cc(N2CCOCC2)oc2c(-c3ccccc3)cccc12 [LY 294002] | 1.82 | 1.63 | 2.46 | 6.84 | 2.18 | 2 | 4.93 | 4.43 | 3 | 6.54 | 6.60 | 2 | 7 | 9 | fold induction at 2.5 µM [1, 9]: 2.46; fold induction at 2.5 µM [1, 10]: 1.82; fold induction at 2.5 µM [1, 11]: 1.63 |
| CC1CNCCN1S(=O)(=O)c1cccc2cnccc12 (stereo not shown) [H-7] | 1.93 | 2.18 | 2.08 | 1.99 | 1.26 |  | 2.75 | 2.44 |  | 2.02 | 1.88 | 6 | 5 | 5 | NGN3 Intensity RATIO, Dose Stages 3 & 4 [1, 12]: 2.08; NGN3 Intensity RATIO, Dose Stage 3 [1, 14]: 1.93; NGN3 Intensity RATIO, Dose Stage 4 [1, 16]: 2.18 |
| Cl.O=S(=O)(c1cccc2c(Cl)cccc12)N1CCCNCC1 [ML-9] | 0.61 | 0.97 | 0.40 | 1.60 | 0.59 |  |  |  |  |  |  |  |  |  |  |
| N#C/C(=C\c1ccc(O)c(O)c1)C(N)=O [Tyrphostin 46] | 1.22 | 1.40 | 0.84 | 2.54 | 0.82 | 13 |  |  |  |  |  | 85 | 66 | 21 | NGN3 Intensity RATIO, Dose Stages 3 & 4 [1, 12]: 0.84; NGN3 Intensity RATIO, Dose Stage 3 [1, 14]: 1.22; NGN3 Intensity RATIO, Dose Stage 4 [1, 16]: 1.40 |
| O=P(O)(O)C(O)c1ccc2ccccc2c1 (stereo not shown) [HNMPA, Hydroxy-2-naphthalenylmethylphosphonic acid] |  |  |  |  |  | 15 |  |  | 16 |  |  |  |  |  |  |
| CN(C)CCCn1cc(C2=C(c3c[nH]c4ccccc34)C(=O)NC2=O)c2ccccc21 [GF 109203X] | 0.99 | 1.29 | 1.04 | 4.54 | 1.53 | 6 | 4.17 | 3.33 | 11 | 5.20 | 3.57 |  |  |  |  |
| COc1cc2ncnc(Nc3cccc(Cl)c3)c2cc1OC [Tyrphostin AG 1478] | 1.62 | 1.57 | 1.74 | 2.41 | 1.89 | 14 |  |  | 7 |  |  | 14 | 15 | 10 | NGN3 Intensity RATIO, Dose Stages 3 & 4 [1, 12]: 1.74; NGN3 Intensity RATIO, Dose Stage 3 [1, 14]: 1.62; NGN3 Intensity RATIO, Dose Stage 4 [1, 16]: 1.57 |
| Cc1cc(O)c2c(=O)c3c(O)cc(O)c4c5c(O)cc(O)c6c(=O)c7c(O)cc(C)c8c1c2c(c34)c(c78)c65 [Hypericin] |  |  |  | 2.15 | 2.22 |  |  |  | 2 |  |  |  |  |  |  |
| Nc1ncnc2c1c(I)cn2[C@@H]1O[C@H](CO)[C@@H](O)[C@H]1O [5-Iodotubercidin] |  |  |  | 0.13 | 0.27 |  |  |  |  |  |  |  |  |  |  |
| CC(C)(C)c1cc(/C=C(\C#N)C(N)=S)cc(C(C)(C)C)c1O [AG-879] | 0.99 | 0.77 | 0.53 | 0.39 | 0.72 |  |  |  |  |  |  |  |  |  |  |
| O=C1Cc2c([nH]c3ccc(Br)cc23)-c2ccccc2N1 [Kenpaullone] |  |  |  | 3.18 | 1.32 | 11 | 1.52 | 1.40 | 15 | 0.53 | 0.45 | 53 | 14 | 23 | fold induction at 2.5 µM [1, 9]: 1.03; fold induction at 2.5 µM [1, 10]: 1.66; fold induction at 2.5 µM [1, 11]: 1.32; effect on NGN3 expression relative to a control treatment (in words) [4]: no enhancing effects; effect on NKX6.1 expression relative to a control treatment (in words) [5]: no enhancing effects |
| NCCNS(=O)(=O)c1cccc2cnccc12 [H-9] | 2.62 | 1.97 | 1.36 | 7.36 | 2.24 | 1 | 2.85 | 2.47 | 1 | 1.93 | 1.76 | 26 | 1 | 6 | NGN3 Intensity RATIO, Dose Stages 3 & 4 [1, 12]: 1.36; NGN3 Intensity RATIO, Dose Stage 3 [1, 14]: 2.62; NGN3 Intensity RATIO, Dose Stage 4 [1, 16]: 1.97 |
| C[S+]([O-])c1ccc(-c2nc(-c3ccc(F)cc3)c(-c3ccncc3)[nH]2)cc1 (stereo not shown) [SB-203580] |  |  |  |  |  | 4 |  |  | 6 |  |  |  |  |  |  |
